Experimental data from PubChem BioAssay AID686979 (National Center for Advancing Translational Sciences (NCATS), 2013).
The campaign covered roughly 420,000 compounds. About 50,000 (12%) were called active. Inconclusive means that the source gave no clear call. Such entries were picked first, then a sample of the others. The call rests on the fitted dose curve; in most records, active means well fitted inhibition curve with a large enough effect; inconclusive means small, poorly fitted or top-dose-only effect; inactive means flat fitted curve, though single readings scatter. No potency is given beside an inconclusive call; the fits are too rough.
Potency means the concentration at half of the fitted maximal effect; tags describe the fitted curve by direction and shape.

Assay: qHTS for Inhibitors of human tyrosyl-DNA phosphodiesterase 1 (TDP1): qHTS in cells in presence of CPT; further: nearly all actives have a fitted effect of over 55% in size
Conditions: chicken DT40 Tdp1-/-;hTDP1 cells + 20 nM CPT, ATP luminescence, 48 h; series mostly up to 46.2 µM
Procedure, shortened: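 Chicken DT40 Tdp1-/- cells complemented with human TDP1, 400 cells/well, exposed to compounds plus 20 nM camptothecin for at least 48 h at 37 C; viability read as ATP content by CellTiter-Glo luminescence.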
With CCOc1ccc(-n2c(=O)c3sccc3n(Cc3cccc([N+](=O)[O-])c3)c2=O)cc1 the Potency was inconclusive [inhibitor, single point]. In the case of O=C(NNC1=C(C(=O)C(F)(F)F)CCC1)c1ccc(Br)cc1, the Potency is reported as inconclusive [inhibitor, single point]. In the case of Cc1ccc(C(=O)Nc2ccc(C(=O)O)cc2NC(=O)c2ccc(C)cc2)cc1, the Potency is reported as “inactive”. For O=C(Nc1nnc(C2CC2)s1)C1Cc2ccccc2CN1S(=O)(=O)c1cccs1 (stereo unspecified), the Potency was active: 20.6 µM. In the case of O=C(Nc1c(C(=O)c2ccccc2)oc2ccccc12)c1cc(-c2ccccc2O)n[nH]1, the Potency is reported as active: 20.6 µM. For Cc1c(NC(=O)c2c([N+](=O)[O-])cnn2C)c(=O)n(-c2ccccc2)n1C, the Potency was “inactive”. For O=C(Nc1cccc([N+](=O)[O-])c1)NN1CCCCCC1, the Potency was inconclusive [inhibitor, single point]. For COc1ccc(C(O)(CC(C)C)C(CN2CCOCC2)c2ccccc2)cc1 (stereo unspecified), the Potency was inconclusive [inhibitor, single point]. In the case of COc1cc(C2CC(=O)Oc3cc(C)c(Br)c(C)c32)cc(OC)c1OC (stereo unspecified), the Potency is reported as active: 20.6 µM. In the case of COc1ccc(-c2sc3cc4c(cc3c2C#CCO)OCO4)cc1, the Potency is reported as inconclusive [inhibitor, single point]. In the case of O=C(Nc1ccccc1)C1=C(O)CC(c2ccc(Cl)cc2)N2CCN=C12 (stereo unspecified), the Potency is reported as inconclusive [inhibitor, single point]. With CCC(=O)N1c2ccc(S(=O)(=O)NCCc3ccc(C)cc3)cc2CC1C (stereo unspecified) the Potency was “inactive”. In the case of Cn1c(C2=C(O)CN(c3ccccc3)C2=N)nc2ccccc21, the Potency is reported as “inactive”. With Cc1cc(C)c(C)c(OCCN2CCOCC2)c1 the Potency was “inactive”. For CCC(c1nc2ccccc2[nH]1)N(CCCn1ccnc1)C(=O)c1ccc(C(F)(F)F)cc1 (stereo unspecified), the Potency was inconclusive [inhibitor, single point]. For COc1cccc(CNCCSc2nnnn2C)c1OC, the Potency was “inactive”. In the case of COc1ccc(-c2nc(CS(=O)CC(=O)NC(C)CCc3ccccc3)c(C)o2)cc1OC (stereo unspecified), the Potency is reported as inconclusive [inhibitor, single point]. In the case of CC1(C(=O)Nc2ccc3c(c2)OCCO3)CSCC(=O)N1CCCn1ccnc1 (stereo unspecified), the Potency is reported as “inactive”. For CCc1ccccc1Nc1nn2c(=O)c3ccc(C(=O)NCc4ccc(C)cc4)cc3nc2s1, the Potency was inconclusive [inhibitor, partial curve]. In the case of COC(=O)COc1ccc(-c2nn(C)c(=O)c3ccccc23)cc1, the Potency is reported as “inactive”. For COCCCNC(=O)c1ccc(Cn2c(=O)c3ccccc3n(CC(N)=O)c2=O)cc1, the Potency was inconclusive [inhibitor, single point]. With CC1CCCN(Cc2nc(Cc3ccccc3Cl)no2)C1 (stereo unspecified) the Potency was “inactive”. In the case of COc1ccc(-c2csc(NC(=O)CCS(=O)(=O)c3ccccc3)n2)c(OC)c1, the Potency is reported as inconclusive [inhibitor, single point]. For COc1ccc2nc(NC3=NC(c4ccccc4)CC(=O)N3)nc(C)c2c1 (stereo unspecified), the Potency was inconclusive [inhibitor, single point]. With CCOC(=O)c1ccc(NC(=O)CSc2nc3ncc(Br)c(C)c3[nH]2)cc1 the Potency was “inactive”. With CCOc1ccccc1NC(=O)CN(c1ccc(C)cc1)S(=O)(=O)c1c(C)n[nH]c1C the Potency was inconclusive [inhibitor, single point]. In the case of N#Cc1ccc(C23CC4(C2)[C@H](CN(Cc2ccc(-c5ccccc5)cc2)[C@@H]4c2ccccc2)C3c2ccc(Cl)nc2)cc1 (stereo partly specified), the Potency is reported as inconclusive [inhibitor, single point]. For Fc1ccc(-c2nc3ccccc3[nH]2)cc1, the Potency was inconclusive [inhibitor, partial curve]. In the case of O=C1CCCC(O)=C1N=Nc1ccc(Cl)c(Cl)c1, the Potency is reported as inconclusive [inhibitor, single point]. In the case of Cc1ccc(S(=O)(=O)N2CN(Cc3ccco3)c3nc4ccccc4nc32)cc1, the Potency is reported as inconclusive [inhibitor, single point]. For CC(=O)Nc1cccc(NC(=O)c2cc(-c3ccccn3)nc3ccc(Cl)cc23)c1, the Potency was “inactive”. With CC(C)(C)C(=O)Nc1cc(-c2cccc(Br)c2)nn1-c1ccccc1 the Potency was inconclusive [inhibitor, single point]. For COCCCNC(=O)CN1C(=O)COc2ccc(S(=O)(=O)N3CC(C)CC(C)C3)cc21 (stereo unspecified), the Potency was “inactive”. In the case of CCOC(=O)c1c(NC(=O)COC(=O)C2CCC2)sc(C(=O)N(C)C)c1C, the Potency is reported as inconclusive [inhibitor, single point]. With COc1ccc(C(c2nnnn2C(C)(C)C)N2CCN(C/C=C/c3ccccc3)CC2)cc1 (stereo unspecified) the Potency was inconclusive [inhibitor, single point]. With Cn1c2ccccc2c2cc(C(=O)NNS(=O)(=O)c3ccc(F)cc3)sc21 the Potency was inconclusive [inhibitor, single point]. With CCN(C(=O)c1ccc2c(c1)N(Cc1cccc(Cl)c1)C(=O)c1ccccc1S2=O)c1ccccc1 (stereo unspecified) the Potency was inconclusive [inhibitor, single point]. With COc1ccc(Cc2nnc(NC(=O)Nc3ccc(F)cc3)s2)cc1OC the Potency was inconclusive [inhibitor, single point]. In the case of O=C(NCCCNc1ccnc2cc(Cl)ccc12)c1ccccc1F, the Potency is reported as inconclusive [inhibitor, single point]. In the case of CN(C)c1ccc(/C=N\Nc2ccccn2)cc1, the Potency is reported as active: 20.6 µM. In the case of CCC(=O)N1c2ccccc2CC1C(=O)NCCCN1CCN(c2cc(C)ccc2C)CC1 (stereo unspecified), the Potency is reported as active: 20.6 µM. For CC(C)NS(=O)(=O)c1ccc2[nH]c3nc(SCC(=O)Nc4ccc(F)c(F)c4)nnc3c2c1, the Potency was inconclusive [inhibitor, single point]. With O=C(N[C@@H](Cc1ccccc1)C(=O)OCc1ccccc1)c1nc[nH]c1C(=O)N1CCN(c2ccccc2)CC1 the Potency was inconclusive [inhibitor, single point]. For Cc1nc(NC(=O)/C=C/c2ccccc2)sc1C(=O)N1CCCCC1, the Potency was inconclusive [inhibitor, single point]. With Cc1c(NC(=O)COC(=O)C(c2ccc(Cl)cc2)C(C)C)c(=O)n(-c2ccccc2)n1C (stereo unspecified) the Potency was inconclusive [inhibitor, single point]. With Cc1cccc(NC(=O)/C(C#N)=C\c2cc(C)n(-c3ccc(C(=O)O)cc3)c2C)c1 the Potency was inconclusive [inhibitor, single point]. For CCOC(=O)C1CCCN(C(=O)CC(c2ccccc2)c2ccccc2)C1 (stereo unspecified), the Potency was inconclusive [inhibitor, single point]. With COc1ccc(CN2CCN(Cc3cn(C)nc3-c3ccccc3)CC2CCO)c(C)c1C (stereo unspecified) the Potency was inconclusive [inhibitor, single point]. For COc1cccc(CNC(=O)CCl)c1, the Potency was “inactive”. For C/C(N)=C(/C#N)C(=O)COC(=O)CCSc1ccccc1Cl, the Potency was “inactive”. With Oc1[nH]c2ccc(Br)cc2c1N=NC(=S)Nc1ccc(F)cc1 the Potency was active: 1.3 µM. With O=C(NCCCc1nc2ccccc2n1Cc1ccc(F)cc1)C1CCCCC1 the Potency was inconclusive [inhibitor, single point]. For CSc1cccc(NS(=O)(=O)c2ccccc2)c1, the Potency was “inactive”. For Cc1ccc(-n2c(C)cc(/C=C3/SC(=O)N(CC(=O)N4CCOCC4)C3=O)c2C)nc1, the Potency was “inactive”. In the case of Cc1ccc(NC(=O)CSc2nnc(CNC(=O)c3ccco3)o2)cc1Cl, the Potency is reported as “inactive”. With COc1ccc(/C=N/NC(=O)CN(CCc2ccccc2)S(=O)(=O)c2ccc(NC(C)=O)cc2)cc1OC the Potency was inconclusive [inhibitor, single point]. For Cc1noc(C)c1S(=O)(=O)N1CCN(c2ccc(Cl)cc2)CC1, the Potency was inconclusive [inhibitor, single point]. In the case of Cc1cccc(C)c1NC(=O)CS(=O)CC(=O)Nc1ccc(N2CCOCC2)cc1 (stereo unspecified), the Potency is reported as “inactive”. For Cc1ccc(CN(Cc2cc3cccc(C)c3[nH]c2=O)C(=S)NCCCN(C)C)cc1, the Potency was inconclusive [inhibitor, single point]. For Cc1ccc(C(=O)Nc2ccc(F)cc2)cc1S(=O)(=O)N1CCCCCC1, the Potency was inconclusive [inhibitor, single point]. For COc1ccc(NC(=O)c2cc(S(=O)(=O)N3CCOCC3)cn2C)cc1Cl, the Potency was inconclusive [inhibitor, single point]. In the case of CC(=O)Nc1ccc(Nc2ncnc3c2cnn3-c2ccccc2)cc1, the Potency is reported as inconclusive [inhibitor, single point]. With O=C1CNC(=S)N1C(CO)c1ccccc1 (stereo unspecified) the Potency was “inactive”. For Cn1nc(-c2ccc(OCC(=O)Nc3cccc(C(F)(F)F)c3)cc2)c2ccccc2c1=O, the Potency was inconclusive [inhibitor, single point]. With CN(c1nnc(N)s1)C1CCCCC1 the Potency was “inactive”. With COc1ccc(NC(=S)N(CCN2CCCCC2)Cc2ccco2)cc1 the Potency was inconclusive [inhibitor, single point]. For Cc1noc(C)c1CSCC(=O)N(C)CC(=O)Nc1ccc(F)c(F)c1F, the Potency was “inactive”. In the case of CCOC(=O)N1CCC(Nc2c(N3CCN(c4cccc(C(F)(F)F)c4)CC3)c(=O)c2=O)CC1, the Potency is reported as active: 23.1 µM. For CCCOc1ccc(-c2nc(C#N)c(NCC3CCCO3)o2)cc1 (stereo unspecified), the Potency was “inactive”. For Cc1nc2ccc(S(=O)(=O)Nc3ccccc3C)cc2s1, the Potency was inconclusive [inhibitor, single point]. For Cc1cc2ccccc2nc1SCC(=O)NC1CCCCC1, the Potency was “inactive”.
